Measured values taken from the RNAGym collection of RNA variant scans (doi:10.7554/elife.90254).
The source gives no read counts; variants with many changes may rest on few reads.

B1: LINE1-mini (parent)
chain: GGCAGAGCUCAACACAGCGUGGCAAAGUGGCUGUGGCUAGACUGCC

Variants of: B1
Assay: self-cleavage, relative activity (ratio to wild type); higher = more cleavage; in vitro, sequencing; the parent is a self-cleaving ribozyme

| Variant | self-cleavage |
| --- | --- |
| G22U G36A C45A | 0.12 |
| G22U G36A C46U | 0.06 |
| G22U G36A G40U C45U | 0.26 |
| G22U G36C A39U | 0.07 |
| G22U G36C A41G | 0.64 |
| G22U G36C C45A | 0.18 |
| G22U G36U G44A | 0.28 |
| G22U G40U U43C | 0.1 |
| G22U U28A G30C | 0.94 |
| G22U U28C G30A G36C A41U | 0.18 |
| G22U U28G C37A A39C | 0.02 |
| G22U U28G G35U | 0.06 |
| G22U U34A G36U A41C | 0.06 |
| G22U U38A G40U | 0.09 |
| G22U U43A G44U | 0.1 |
| C23A A24C C37G C46A | 0.02 |
| C23A A24G A25U G30A G44C | 0.24 |
| C23A A24G G27U U32G | 0.03 |
| C23A A24G G30U A41G | 0.09 |
| C23A A24U A25U C31G A41G | 0.01 |
| C23A A24U G30U G36U | 0.04 |
| C23A A24U U28A U32A C45U | 0.09 |
| C23A A25C A26U C45U | 0.51 |
| C23A A25C C45U | 1.3 |

| Variant | self-cleavage |
| --- | --- |
| C23A A25C U32A U34C C37A A39G | 0.25 |
| C23A A25G G35A | 0.01 |
| C23A A25G U43A | 0.09 |
| C23A A25U U34A | 0.25 |
| C23A A26C G27A G35A C37A | 0.01 |
| C23A A26G A39C C42A U43C C45U | 0.04 |
| C23A A26U G35A G44U | 0.05 |
| C23A A41C C42A | 0.05 |
| C23A A41C U43A | 0.06 |
| C23A A41G C42A | 0.12 |
| C23A A41G C42G | 0.1 |
| C23A C31A A41C | 0.02 |
| C23A C31A C37A C42A | 0.16 |
| C23A C31G A41C | 0.05 |
| C23A C31G G35A C45U | 0.05 |
| C23A C31U U34A | 0 |
| C23A C37A A41U | 0.09 |
| C23A C37A C46G | 0.24 |
| C23A C37U C45U | 0.04 |
| C23A C42A G44C | 0.11 |
| C23A C45G C46U | 1.68 |
| C23A G27C G29C G36C G40C | 0.01 |
| C23A G27U G29C C45A | 0.28 |
| C23A G27U G29U A41G G44A | 0.04 |

| Variant | self-cleavage |
| --- | --- |
| C23A G27U G33A | 0.18 |
| C23A G27U G33U C45A | 0.02 |
| C23A G27U U28C | 0.37 |
| C23A G29A G30A A41U | 1.07 |
| C23A G29A G30C G36A | 0.23 |
| C23A G29A G35C C45U | 0.24 |
| C23A G29C C45A | 0.23 |
| C23A G29U A39C C46G | 0.04 |
| C23A G29U A39C U43A C45G | 0.99 |
| C23A G29U C31A | 0.04 |
| C23A G29U C37G | 0.02 |
| C23A G29U C46A | 0.29 |
| C23A G29U G33A | 0.54 |
| C23A G29U G33U C42A | 0.09 |
| C23A G29U U32A C46A | 0.13 |
| C23A G30A G36C G44C | 0.06 |
| C23A G30A G40A | 0.31 |
| C23A G30A G44U | 0.43 |
| C23A G30A U43C | 0.05 |
| C23A G30U G33U C46G | 0.07 |
| C23A G30U G35A | 0.04 |
| C23A G33C A39C | 0.06 |
| C23A G33C C37U | 0.11 |
| C23A G33U U34G | 0.04 |

| Variant | self-cleavage |
| --- | --- |
| C23A G33U U38A | 0.75 |
| C23A G35A G40A | 0.05 |
| C23A G35U G44U | 0.35 |
| C23A G36C C37G | 0.02 |
| C23A G36C C42A | 0.03 |
| C23A G40C C46U | 0.05 |
| C23A U28A U32A C37G G40A G44A | 0.06 |
| C23A U28C G30A | 1.78 |
| C23A U28G G29C U43A G44C | 0.01 |
| C23A U32A G33A | 0.34 |
| C23A U32A G35U G36A | 0.14 |
| C23A U32C A39C | 0.19 |
| C23A U32C G33U | 0.09 |
| C23A U32C U34G A39U | 0.03 |
| C23A U32G C45A | 0.06 |
| C23A U32G U38C C46U | 0.02 |
| C23A U34A C42A | 0.08 |
| C23A U34C C42U | 0.04 |
| C23A U34C G35A C45A | 0.02 |
| C23A U34C G36A | 0.21 |
| C23A U34C U38A | 0.21 |
| C23A U34G C46A | 0.09 |
| C23A U38A C42U | 0.66 |
| C23A U38A G40A | 0.23 |

| Variant | self-cleavage |
| --- | --- |
| C23G A24C G30A A41U C42G | 0.06 |
| C23G A24U G40U C45G | 0.01 |
| C23G A24U G44U | 0.13 |
| C23G A24U U43A | 0.06 |
| C23G A25C G40A | 0.07 |
| C23G A25C U28A G29U | 0.41 |
| C23G A25G G36A | 0.06 |
| C23G A25G U34G G40U | 0.03 |
| C23G A26C C42G | 0.02 |
| C23G A26C C42U | 1.54 |
| C23G A26C C46A | 0.63 |
| C23G A26C G44A C46G | 0 |
| C23G A26G C31A G33U G40A | 0 |
| C23G A26U U38A G40U | 0.06 |
| C23G A39G C45G | 0.05 |
| C23G C31A C42A | 0.03 |
| C23G C31A G40C A41U | 0.05 |
| C23G C31A G44U | 0.02 |
| C23G C31A U32G G36A | 0.07 |
| C23G C31A U43A C46G | 0 |
| C23G C31G A41U | 0.03 |
| C23G C31G G36C A39G | 0 |
| C23G C31U C45A | 0.03 |
| C23G C37A U43A | 0 |

| Variant | self-cleavage |
| --- | --- |
| C23G C37G C45U | 0.04 |
| C23G C37U U38C | 0.01 |
| C23G C42A C45U | 0.3 |
| C23G C45A C46U | 0.41 |
| C23G G27A C37A | 0.06 |
| C23G G27A C42A C46U | 0.03 |
| C23G G27A G35A C42U | 0.14 |
| C23G G27C G33U | 0.34 |
| C23G G27C U28C | 1.52 |
| C23G G27U A39U | 0.16 |
| C23G G29A C45A | 1.93 |
| C23G G29C G30C C31A U32C | 0.1 |
| C23G G29C G44U | 0.03 |
| C23G G29U G36A | 0.03 |
| C23G G30A U32C | 0.15 |
| C23G G30A U32G U38G G44A C45G | 0.06 |
| C23G G30C G40C | 0.07 |
| C23G G30C U32A G35C | 0 |
| C23G G30C U38A | 0.37 |
| C23G G30U A39C | 0.09 |
| C23G G30U G35A C42A | 0.02 |
| C23G G30U U34C G40U | 0.03 |
| C23G G33A U34G | 0.01 |
| C23G G33U G40C | 0.01 |

| Variant | self-cleavage |
| --- | --- |
| C23G G35A C37G | 0 |
| C23G G35C G36C C45A C46U | 0.01 |
| C23G G35U C42U | 0 |
| C23G G35U G44C C46G | 0.01 |
| C23G G36C C46A | 0.07 |
| C23G G40A G44U C45G C46U | 0.01 |
| C23G G40C A41G | 0.07 |
| C23G G40U C42G G44A C46U | 0.04 |
| C23G U28A A39G | 0.01 |
| C23G U28A C45G | 0.07 |
| C23G U28C G29U G30U | 0.38 |
| C23G U28C G35C C45A | 0.04 |
| C23G U28G A39U | 0.26 |
| C23G U28G C46U | 0.03 |
| C23G U28G G29U | 0.53 |
| C23G U32A G35A G36A | 0.09 |
| C23G U32C G35A | 0.05 |
| C23G U32C G35A A41C C46U | 0.04 |
| C23G U32G A39C | 0.05 |
| C23G U34G C45A | 0.07 |
| C23G U38C C46G | 2.36 |
| C23U A24C A39C | 0.02 |
| C23U A24C A39G | 0.06 |
